# Assay results: the supplement of paper PMC11417369
# This is one part of the list.
# Test system: PfHDP1 homeodomain (GST-tagged)
# Experiment: gcPBM binding intensity (ln(normalized median fluorescence intensity)); higher = stronger DNA binding
# In short: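 Alexa488 anti-GST antibody, scanned at 488 nm, detected GST-tagged P. falciparum DNA-binding domains that had been expressed in E. coli and incubated for 1 h on an Agilent 4 × 180k array. The array carried primer-extended double-stranded 36-bp intergenic genomic probes and negative controls. Binding intensity is the highest Masliner-normalised natural-log median intensity across replicate spots of either orientation of each probe.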
row,Sequence,gcPBM binding intensity (ln)
1,AATTAAAAGTGAAGAGTGCATAGAATTTTTTACTTT [GTGCAC_site9973],7.26
2,ATAATTATATTTAGTGGTACTACTTTTGATAATTAG [XGTACX_site6562],6.19
3,TATAAGTGCCGTTATACACACGTTATATAAATATTA [CACACA_site4401],6.58
4,TGTAATATATGTATTGCACACCTATAACCATTATTT [CACACA_site8422],9.86
5,GACAATTATATGTAGGTGCATATACAAATTTTTTAA,9.14
6,ATAGGATATTATTCCTGTACATATATATATATATAT [XGTACX_site2108],9.35
7,ATCAAAAGAAGACACACACACATACCTATAAATATA [CACACA_site7736],6.81
8,AATAGTTATTCCAGGTGTACATAACATATAATTTAC [XGTACX_site1340],6.19
9,TTATTATTATTACTTACGCACACTTTTTTTTTTATT [CACACA_site411],7.55
10,ATATAAGTATATCTATGTACATACAATATAAATGTA [XGTACX_site2153],6.28
11,TATATACATACATATTGTACTTATAAAGATTAATTT [XGTACX_site2203],6.33
12,ATAAAAAATATCACATAAAATAAAAAAAGAAAGGAT [XGTACX_negctrl_site294],7.21
13,ATATATAAAAATAAATGTACATATTCATATGATGAT [XGTACX_site3411],6.46
14,TATATATATACAGTAGTGCATATATTTAAAATATAT [GTGCAC_site9999],8.59
15,TATATATAAAAATATACACACTGTATTATTGTAATA [CACACA_site5959],6.33
16,ATAACGAACACTATTACACACATACATACATATGTA [CACACA_site5092],7.08
17,AAAAAAAAAAAAAACACACACACATAGACCTCCAAT [CACACA_site3563],6.76
18,TTTTTTGTTACAACAGTGCAAAAAAACCTTAATGTT,8.41
19,ATATATATATATATATGTACATACAATTATATTCTC [XGTACX_site1133],9.37

row,Sequence,gcPBM binding intensity (ln)
1,AAAAATCATTTAAGAACACACAAATATTTCCATTAA [CACACA_site1488],6.12
2,TACATAAATTTTAATACATGCAAATAAAATATATAA [TGCATGCA_site131],6.54
3,AATCTTCTTAATTGTAGTACACAATTTATAAACAAA [XGTACX_site8706],6.64
4,AAAAAAAAAAAAAACACACAAACAAATGAATAAATA [CACACA_site3300],6.54
5,TGTATATACATAAAGTGTACGTATATTTATATATAT [XGTACX_site4320],6.71
6,TATTTTTATTTTACATTATTTGTTTATAATTCTTAA [CACACA_negctrl_site1358],6.4
7,AATAAATAAATAAATATATATATATATATATATATA [CACACA_negctrl_site708],9.33
8,ATATATATATATAATGCACACATTATAAATTATGTA [CACACA_site5802],10.6
9,ATCTTTTATATATTCACACATAAAATTATACAGATA [CACACA_site5277],6.7
10,TTTTTTTTTTATTCATGTACGTATTTAAATAATTCT [XGTACX_site2651],6.58
11,GAGTTTTAATGTAATAGTACTTTAATTATTATATAT [XGTACX_site4527],6.47
12,AAAACACAATTTATTACACACATATATTATAGATTA [CACACA_site6780],6.61
13,GATCGCATGAAATGAACACACATAAAAAAAATATAC [CACACA_site4087],6.76
14,AAAAAAAAAATATACACACACACATACCCATAAATA [CACACA_site5981],6.91
15,TTATAAAAATACAGTTAACACACATGTGTATATATA [CACACA_site9257],7.13
16,AAAATAATCTTATGCACACCAAAAATTTATATAATC [CACACA_site1235],10.6
17,TATATATATAAGGATAGTACATATATTTATATGATT [XGTACX_site4954],7.56
18,GACTACACACAAGGGTGTACATATATATTATATATA [XGTACX_site2247],6.67
19,TTAACTTATTTGTAAAGTACATTAATAAAAAGAAAA [XGTACX_site1588],6.55

row,Sequence,gcPBM binding intensity (ln)
1,AGGTTATAATTGTTTTCACACATTTAAAAATGTTAT [CACACA_site5097],6.65
2,TTATATATTTCTATTGCACACTATATTTTATGAAGA [CACACA_site2910],10.3
3,AAAATTATAAAATGGGCACACATGAATATTGTAGTA [CACACA_site5261],6.56
4,ATGAAATTTATATCATGTACATACAAGAGAAAAAAA [XGTACX_site3326],6.54
5,GTATAATAAATGATAGCACACATATGTACTTATATA [CACACA_site8188],6.69
6,TTTATTTTAAATTTACGTACATAATTAATCATATTT [XGTACX_site7529],6.41
7,ATAAAAAATTAGGACTGTACATAATTTTTGTGATTT [XGTACX_site2857],6.22
8,ATAATACCATTAATTTGTACATATATATTATATATA [XGTACX_site4345],6.49
9,ATTATATTATATATATGTACATATATATATCATAAT [XGTACX_site1],6.51
10,ACAAAAAGTTACATACGTACGTAAAATTGTAATAAA [XGTACX_site2358],6.58
11,TGCTTCTTTTAAAAACATGTTTGTATTCATTTTATA [CACACA_negctrl_site1627],6.99
12,TTTTGGATGAACAGTACATGCAAAAACAAACTTGTA [TGCATGCA_site16],6.62
13,TATATATATATATATTGTACACATACATGTAGTTTT [XGTACX_site4848],9.29
14,AAAGTAATATATAATACATGCGTAAATATTTATGTA [TGCATGCA_site254],6.85
15,TATATATATATATAGGTGCAATATTGAAAAAATATC [GTGCAC_site9535],9.87
16,GACAAATGAAAAGATTGTACATGTATTTGAAGATTA [XGTACX_site6775],6.65
17,TCTTTTATATTTTTTTGTACACAAGAATAAAGAAAA [XGTACX_site3394],6.73
18,TACACAAAAATTTATACACACACATATATAATATAT [CACACA_site7931],6.8
19,TGATTATATATAAATGTATGCATGTCTATTATGCTA [TGCATGCA_site543],6.45
